In article PMC4336329 (PLoS ONE, 2015):
Out of some 310,000 compounds screened, about 14,000 (4.5%) showed an effect of 50% or more. Effects have a minus sign here. Some of the results follow.

target: human ether-à-go-go-related gene (hERG) potassium channel (human, UniProt Q12809); experiment: primary screen, population patch clamp on CHO cells stably expressing hERG
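Further: peak tail current of the secondary pulse compared with the same well before compound.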

Sequence of human ether-à-go-go-related gene (hERG) potassium channel (Q12809 whole entry, looked up): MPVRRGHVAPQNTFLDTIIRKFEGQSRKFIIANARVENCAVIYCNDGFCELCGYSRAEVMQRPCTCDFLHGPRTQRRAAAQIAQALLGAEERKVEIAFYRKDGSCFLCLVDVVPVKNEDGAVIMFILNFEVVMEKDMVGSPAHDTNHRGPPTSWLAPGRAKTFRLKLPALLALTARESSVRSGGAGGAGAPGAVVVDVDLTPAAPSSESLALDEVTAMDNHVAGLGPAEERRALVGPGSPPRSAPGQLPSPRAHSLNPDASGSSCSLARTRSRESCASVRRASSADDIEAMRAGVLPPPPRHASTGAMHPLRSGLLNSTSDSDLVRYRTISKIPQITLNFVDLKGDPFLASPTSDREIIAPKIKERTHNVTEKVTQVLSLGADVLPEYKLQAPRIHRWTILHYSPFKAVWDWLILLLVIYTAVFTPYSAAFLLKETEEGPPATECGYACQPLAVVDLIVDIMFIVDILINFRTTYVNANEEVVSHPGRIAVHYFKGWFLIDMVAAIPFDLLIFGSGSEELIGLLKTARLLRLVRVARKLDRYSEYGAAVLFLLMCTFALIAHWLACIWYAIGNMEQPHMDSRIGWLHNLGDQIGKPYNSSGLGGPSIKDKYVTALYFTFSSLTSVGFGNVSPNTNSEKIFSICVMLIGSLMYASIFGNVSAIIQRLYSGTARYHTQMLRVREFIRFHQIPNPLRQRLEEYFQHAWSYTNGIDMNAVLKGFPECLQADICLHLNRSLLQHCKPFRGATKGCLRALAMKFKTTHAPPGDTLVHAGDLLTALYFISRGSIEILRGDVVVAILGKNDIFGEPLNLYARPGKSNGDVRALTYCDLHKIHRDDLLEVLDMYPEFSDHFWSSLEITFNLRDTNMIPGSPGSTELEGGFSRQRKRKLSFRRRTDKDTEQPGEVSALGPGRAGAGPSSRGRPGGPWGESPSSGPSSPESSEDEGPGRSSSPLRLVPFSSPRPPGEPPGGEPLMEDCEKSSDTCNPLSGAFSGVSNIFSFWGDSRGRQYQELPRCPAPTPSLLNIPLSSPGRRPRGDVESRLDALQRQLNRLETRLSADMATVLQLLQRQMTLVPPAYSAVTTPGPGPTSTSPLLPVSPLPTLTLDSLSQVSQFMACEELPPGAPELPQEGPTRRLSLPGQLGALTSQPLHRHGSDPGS

Row | SMILES | hERG current change (%, negative = inhibition) at 10uM
1 | CCc1nc2ccc(C)cc2c(C(=O)NC2CCCCC2C)c1C (stereo not drawn) | -24%
2 | CCN(CC)S(=O)(=O)c1cccc(C(=O)OCC(=O)C23CC4CC(CC(C4)C2)C3)c1 | -0.873%
3 | CC(=O)Nc1ccc(C(=O)Nc2cccc(S(=O)(=O)N(C)c3ccccc3)c2)cc1 | 2.08%
4 | CS(=O)(=O)Cc1cccc(C(=O)NC2CCSc3ccccc32)c1 (stereo not drawn) | 14.2%
5 | CCN1CCCC1CN(Cc1cc2ccc(C)cc2[nH]c1=O)C(=S)Nc1ccccc1OC (stereo not drawn) | 46.7%
6 | NC(=O)CN1CCCN(S(=O)(=O)c2ccc(Br)cc2)CC1 | -18%
7 | COc1ccccc1OCC(=O)OCn1c(SC)nnc(C)c1=O | 25.1%
8 | O=C(NCc1nc2ccccc2[nH]1)C1=C[C@@H](C2CCCCC2)C[C@@H](OCCCCO)O1 | -3.98%
9 | O=C(Nc1cc2c3c(c1)CC(=O)N3CCC2)C1CCCCC1 | -5.43%
10 | O=C(NCS(=O)(=O)c1ccccc1)c1ccccc1 | -0.415%
11 | CC(C)(C)n1ncc2c(=O)n(CC(=O)Nc3ccc4c(c3)OCO4)cnc21 | 7.05%
12 | CC(=O)N1N=C(c2ccc(C)cc2)OC1c1cccnc1 (stereo not drawn) | 8.57%
13 | COc1ccc(CC(=O)N2CCc3ccccc3C2)cc1 | 3.67%
14 | Nc1ccc(C(=O)Nc2cccc(N)c2)cc1 | 22.1%
15 | c1cc2c(cc1Cn1cnnn1)OCO2 | 8.76%
16 | Cc1sc2nc(SCC(=O)Nc3ccccc3F)[nH]c(=O)c2c1C | 18.8%
17 | CCN1CCN(Cc2ccc(C)cc2C)CC1 | 3.19%
18 | CCCn1c(N2CCN(CC(=O)Nc3ccc4c(c3)OCCO4)CC2)nc2ccccc21.Cl | -60.4%
19 | Cc1ccn2c(=O)c(NC(=O)c3ccc(Br)o3)c(C)nc2c1 | 8.18%
20 | Cc1cc(NC(=O)Nc2ccc3c(ccn3C)c2)sn1 | 11.2%
21 | COc1cccc(NC(=O)C2C3C=CC(O3)C2C(=O)NCc2cccnc2)c1 (stereo not drawn) | -5.43%
22 | COc1cc(/C=C/C(=O)OCC(=O)N2CCCC2)cc(OC)c1OC | 15.8%
23 | COc1cccc(NC(=O)c2c(C)nn(-c3ccccc3)c2Cl)c1 | 11.9%

Row | SMILES | hERG current change (%, negative = inhibition) at 10uM
24 | C/C=C(/C)C(=O)O[C@@H]1c2c(ccc3ccc(=O)oc23)O[C@@H]1C(C)(C)OC(=O)/C(C)=C\C | -0.936%
25 | CC1(C)Cc2cccc(OCC(=O)N3CCN(c4ccccc4)CC3)c2O1 | -45.6%
26 | COc1ccc(/C=N/NC(=O)c2cc[n+]([O-])cc2)cc1OC | 29.1%
27 | O=C(N/N=C/c1ccc(Cl)cc1)c1sccc1OCc1ccc(F)cc1 | 16.7%
28 | CCC1CCCCN1CCNC(=O)CCS(=O)(=O)c1ccc(Br)cc1 (stereo not drawn) | -19.6%
29 | CSc1ncccc1C(=O)Nc1cc(C)ccn1 | 6.19%
30 | CC(CCc1ccccc1)NC(=O)[C@@H]1Cc2ccccc2CN1.Cl (stereo partly drawn) | -32.3%
31 | O=C(NCc1cccc(CNC(=O)Nc2cccc(O)c2)c1)Nc1cccc(O)c1 | 15.3%
32 | c1ccc(Cn2c3ccccc3c3nnc(SCCN4CCCCC4)nc32)cc1 | -67.7%
33 | Brc1ccc2nc(-c3c[nH]c4ccccc34)cn2c1 | 18%
34 | Cc1cc(NC(=O)Nc2ccccc2[N+](=O)[O-])n(C)n1 | 16.7%
35 | N#Cc1ccc(-c2ccc(F)cc2)nc1Sc1ccc(F)cc1 | -3.46%
36 | O=C(CN1CCOCC1)N/N=C/c1ccccc1 | -14.4%
37 | CCN(c1ccccc1)S(=O)(=O)c1cccc(C(=O)NCc2cccnc2)c1 | -8.07%
38 | CC(=O)N(C)c1cccc([N+](=O)[O-])c1 | 7.09%
39 | CCC(C)[C@H]1CNC(=S)N1CCc1cc(C(F)(F)F)cc(C(F)(F)F)c1 (stereo partly drawn) | 11.8%
40 | CC(C)Sc1nc2ccccc2n1CC(=O)NCc1ccc2c(c1)OCO2 | -7.23%
41 | CCOC(=O)N1CCN(C(=O)CN(C2CCCCC2)S(=O)(=O)c2ccc(Cl)cc2)CC1 | -47.8%
42 | COc1cc(NC(=S)N2CCC(C(O)(c3ccccc3)c3ccccc3)CC2)cc(OC)c1 | -8.09%
43 | Nc1nc(SCC(=O)N2CCOCC2)n[nH]1 | 13.7%
44 | COc1ccc(CCNC(=O)C2CCN(Cc3nc(-c4ccccc4F)oc3C)CC2)cc1OC | -45.4%
45 | CC(C)NC(=O)C1CCN(C2CCN(C(=O)c3scc4c3CCCC4)CC2)CC1 | -1.4%
